Experiments:
[1] = tested on: wheat brown rust fungi (Puccinia recondita); assay: Test Example E: wheat brown rust, spray treatment of wheat plants; assay type: in vivo; details: wheat brown rust, spray treatment
[2] = tested on: gray mold fungi (Botrytis cinerea); assay: Test Example B: tomato gray mold, spray treatment of tomato plants; details: tomato gray mold, spray treatment
[3] = tested on: cabbage Alternaria sooty spot fungi (Alternaia brassicicola); assay: Test Example C: cabbage Alternaria sooty spot, spray treatment of cabbage plants; assay type: in vivo; details: cabbage Alternaria sooty spot, spray treatment
Excerpt: [Test Example C] Cabbage Alternaria Sooty Spot
Test plants (cabbage variety: Shikidori) were cultivated until the cotyledons extended after the sowing of seeds.
<Control Value> Control value=100{1−(n/3)}

[4] = tested on: grape downy mildew fungus (Plasmopara viticola); assay: Test Example G: grape downy mildew, spray treatment of grape plants; details: grape downy mildew, 250 ppm spray, 7 to 10 days after inoculation
[5] = tested on: barley powdery mildew fungi (Blumeria graminis f. sp. hordei); assay: Test Example D: barley powdery mildew, spray treatment of barley plants; details: barley powdery mildew, spray treatment

SMILES: Cc1cn(-c2ccccc2)c(-c2ccccc2Cl)c(C)c1=O [Compound 575]
- Test E control value [1]: H (H shows the control value of more than 50%)
- Test B control value [2]: H (H shows the control value of more than 50%)
- Test C control value [3]: H (H shows the control value of more than 50%)
- Test G control value [4]: L (L shows the control value of 50% or less)
- Test D control value [5]: L (L shows the control value of 50% or less)

SMILES: Cc1cn(-c2ccccc2)c(-c2ccccc2Br)c(C)c1=O [Compound 578]
- Test E control value [1]: H (H shows the control value of more than 50%)
- Test B control value [2]: H (H shows the control value of more than 50%)
- Test C control value [3]: H (H shows the control value of more than 50%)
- Test G control value [4]: L (L shows the control value of 50% or less)
- Test D control value [5]: L (L shows the control value of 50% or less)

SMILES: Cc1ccccc1-c1c(Cl)c(=O)c(Br)cn1-c1ccccc1 [Compound 579]
- Test E control value [1]: H (H shows the control value of more than 50%)
- Test B control value [2]: H (H shows the control value of more than 50%)
- Test C control value [3]: H (H shows the control value of more than 50%)
- Test G control value [4]: L (L shows the control value of 50% or less)
- Test D control value [5]: L (L shows the control value of 50% or less)

SMILES: Cc1ccccc1-c1c(C)c(=O)c(C)cn1-c1ccccc1 [Compound 580]
- Test E control value [1]: H (H shows the control value of more than 50%)
- Test B control value [2]: H (H shows the control value of more than 50%)
- Test C control value [3]: H (H shows the control value of more than 50%)
- Test G control value [4]: H (H shows the control value of more than 50%)
- Test D control value [5]: L (L shows the control value of 50% or less)

SMILES: Cc1cn(-c2ccccc2)c(-c2ccccc2C(F)(F)F)c(C)c1=O [Compound 581]
- Test E control value [1]: H (H shows the control value of more than 50%)
- Test B control value [2]: H (H shows the control value of more than 50%)
- Test C control value [3]: H (H shows the control value of more than 50%)
- Test G control value [4]: L (L shows the control value of 50% or less)
- Test D control value [5]: L (L shows the control value of 50% or less)

SMILES: COc1ccccc1-c1c(C)c(=O)c(C)cn1-c1ccccc1 [Compound 582]
- Test E control value [1]: L (L shows the control value of 50% or less)
- Test B control value [2]: L (L shows the control value of 50% or less)
- Test C control value [3]: H (H shows the control value of more than 50%)
- Test G control value [4]: L (L shows the control value of 50% or less)
- Test D control value [5]: L (L shows the control value of 50% or less)

SMILES: Cc1cc(F)ccc1-c1c(Cl)c(=O)c(Br)cn1-c1ccccc1 [Compound 583]
- Test E control value [1]: H (H shows the control value of more than 50%)
- Test B control value [2]: H (H shows the control value of more than 50%)
- Test C control value [3]: H (H shows the control value of more than 50%)
- Test G control value [4]: L (L shows the control value of 50% or less)
- Test D control value [5]: L (L shows the control value of 50% or less)

SMILES: Cc1cc(F)ccc1-c1c(Br)c(=O)c(Br)cn1-c1ccccc1 [Compound 584]
- Test E control value [1]: H (H shows the control value of more than 50%)
- Test B control value [2]: H (H shows the control value of more than 50%)
- Test C control value [3]: H (H shows the control value of more than 50%)
- Test G control value [4]: L (L shows the control value of 50% or less)
- Test D control value [5]: L (L shows the control value of 50% or less)

SMILES: Cc1cn(-c2ccccc2)c(-c2ccc(F)cc2Br)c(C)c1=O [Compound 585]
- Test E control value [1]: H (H shows the control value of more than 50%)
- Test B control value [2]: H (H shows the control value of more than 50%)
- Test C control value [3]: H (H shows the control value of more than 50%)
- Test G control value [4]: L (L shows the control value of 50% or less)
- Test D control value [5]: L (L shows the control value of 50% or less)

SMILES: Cc1cn(-c2ccccc2)c(-c2ccc(Cl)cc2F)c(C)c1=O [Compound 586]
- Test E control value [1]: H (H shows the control value of more than 50%)
- Test B control value [2]: H (H shows the control value of more than 50%)
- Test C control value [3]: H (H shows the control value of more than 50%)
- Test G control value [4]: H (H shows the control value of more than 50%)
- Test D control value [5]: H (H shows the control value of more than 50%)

SMILES: O=c1c(Br)cn(-c2ccccc2)c(-c2ccc(Cl)cc2F)c1Cl [Compound 587]
- Test E control value [1]: H (H shows the control value of more than 50%)
- Test B control value [2]: L (L shows the control value of 50% or less)
- Test C control value [3]: H (H shows the control value of more than 50%)
- Test G control value [4]: L (L shows the control value of 50% or less)
- Test D control value [5]: L (L shows the control value of 50% or less)

SMILES: O=c1c(Br)cn(-c2ccccc2)c(-c2ccc(Cl)cc2Cl)c1Cl [Compound 588]
- Test E control value [1]: H (H shows the control value of more than 50%)
- Test B control value [2]: H (H shows the control value of more than 50%)
- Test C control value [3]: H (H shows the control value of more than 50%)
- Test G control value [4]: H (H shows the control value of more than 50%)
- Test D control value [5]: L (L shows the control value of 50% or less)

SMILES: Cc1cn(-c2ccccc2)c(-c2c(F)cccc2Cl)c(C)c1=O [Compound 589]
- Test E control value [1]: H (H shows the control value of more than 50%)
- Test B control value [2]: H (H shows the control value of more than 50%)
- Test C control value [3]: H (H shows the control value of more than 50%)
- Test G control value [4]: L (L shows the control value of 50% or less)
- Test D control value [5]: H (H shows the control value of more than 50%)

SMILES: O=c1c(Br)cn(-c2ccccc2)c(-c2c(F)cccc2Cl)c1Cl [Compound 590]
- Test E control value [1]: H (H shows the control value of more than 50%)
- Test B control value [2]: H (H shows the control value of more than 50%)
- Test C control value [3]: H (H shows the control value of more than 50%)
- Test G control value [4]: L (L shows the control value of 50% or less)
- Test D control value [5]: L (L shows the control value of 50% or less)

SMILES: Cc1c(-c2ccc(F)cc2F)n(-c2ccccc2)cc(Br)c1=O [Compound 592]
- Test E control value [1]: H (H shows the control value of more than 50%)
- Test B control value [2]: H (H shows the control value of more than 50%)
- Test C control value [3]: H (H shows the control value of more than 50%)
- Test G control value [4]: L (L shows the control value of 50% or less)
- Test D control value [5]: L (L shows the control value of 50% or less)

SMILES: Cc1c(-c2ccc(F)cc2F)n(-c2ccccc2)cc(I)c1=O [Compound 593]
- Test E control value [1]: L (L shows the control value of 50% or less)
- Test B control value [2]: H (H shows the control value of more than 50%)
- Test C control value [3]: H (H shows the control value of more than 50%)
- Test G control value [4]: L (L shows the control value of 50% or less)
- Test D control value [5]: L (L shows the control value of 50% or less)

SMILES: COc1ccc(-c2c(C)c(=O)c(C)cn2-c2ccccc2)c(Br)c1 [Compound 594]
- Test E control value [1]: H (H shows the control value of more than 50%)
- Test B control value [2]: H (H shows the control value of more than 50%)
- Test C control value [3]: H (H shows the control value of more than 50%)
- Test G control value [4]: H (H shows the control value of more than 50%)
- Test D control value [5]: L (L shows the control value of 50% or less)

SMILES: Cc1cn(-c2ccccc2)c(-c2ccc(Cl)cc2Cl)c(C)c1=O [Compound 595]
- Test E control value [1]: H (H shows the control value of more than 50%)
- Test B control value [2]: H (H shows the control value of more than 50%)
- Test C control value [3]: H (H shows the control value of more than 50%)
- Test G control value [4]: L (L shows the control value of 50% or less)
- Test D control value [5]: L (L shows the control value of 50% or less)

SMILES: O=c1c(Br)cn(-c2ccccc2)c(-c2cc(F)ccc2F)c1Cl [Compound 596]
- Test E control value [1]: L (L shows the control value of 50% or less)
- Test B control value [2]: L (L shows the control value of 50% or less)
- Test C control value [3]: H (H shows the control value of more than 50%)
- Test G control value [4]: L (L shows the control value of 50% or less)
- Test D control value [5]: L (L shows the control value of 50% or less)

Source: patent US11000038B2, “Pyridone compounds and agricultural and horticultural fungicides containing the same as active ingredients” (priority 2017, dated 2021)
